# Over roughly 18,000 sequences, “TetR repression strength (sort-seq, GFP reporter)” has its median near 0.23; the highest 2% begin near 0.68. The list shows a part of the results.
# Target: TetR (class B, Tn10) (UniProt P04483)
# Assay: TetR repression strength (sort-seq, GFP reporter) (relative to tetO2 = 1); higher = stronger repression
# Settings: E. coli
# In short: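 Three independent transformations of E. coli SIG10-MAX were made with a low-copy plasmid library randomizing eight operator positions between a constitutive promoter and sfGFP, with constitutive TetR. Following 5 h at 37 °C in LB plus 50 µg/mL chloramphenicol, 10^6 cells went through FACS into 13 fluorescence bins, and each bin was sequenced by Illumina. Repression strength was defined as the top bin index plus one minus the read-weighted mean bin, divided by the unaltered operator's value. Averages included only members reaching ≥30 reads in all replicates with a CV ≤0.5.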
# UniProt P04483, sequence (P04483 whole entry): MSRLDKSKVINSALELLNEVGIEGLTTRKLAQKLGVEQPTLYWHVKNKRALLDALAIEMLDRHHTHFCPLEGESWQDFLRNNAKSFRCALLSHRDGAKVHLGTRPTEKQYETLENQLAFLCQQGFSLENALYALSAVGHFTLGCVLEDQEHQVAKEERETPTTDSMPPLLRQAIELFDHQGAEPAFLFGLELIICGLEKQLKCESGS
row,Sequence,TetR repression strength
1,TCCCGGGAAGTACGGGAGA,0.0188
2,TCCCCAGCAGTAACAGAGA,0.255
3,TCCCGGTTAGTGAGCGAGA,0.205
4,TCCCAATGAGTAGGGGAGA,0.0811
5,TCCCCAGAAGTGCGTGAGA,0.0661
6,TCCCAGGGAGTCTGGGAGA,0.244
7,TCCCTGAAAGTTACGGAGA,0.193
8,TCCCTCCGAGTAGTGGAGA,0.292
9,TCCCTGCTAGTTGCAGAGA,0.0649
10,TCCCGTCTAGTGCCTGAGA,0.293
11,TCCCGCAGAGTGGAAGAGA,0.347
12,TCCCTACAAGTTTTTGAGA,0.223
13,TCCCCTTTAGTGGCTGAGA,0.219
14,TCCCATGGAGTGAGTGAGA,0.153
15,TCCCTTCGAGTTCTCGAGA,0.207
16,TCCCGTCTAGTGTGTGAGA,0.237
17,TCCCAGGAAGTAGGGGAGA,0.0815
18,TCCCTGTGAGTGTGCGAGA,0.152
19,TCCCAAACAGTACAAGAGA,0.356
20,TCCCGTAGAGTGGCCGAGA,0.0654
21,TCCCGCTCAGTTGCTGAGA,0.26
22,TCCCCGACAGTTTAGGAGA,0.228
23,TCCCTACGAGTCGGCGAGA,0.207
24,TCCCCATTAGTCCCGGAGA,0.118
25,TCCCTTCGAGTTAATGAGA,0.387
26,TCCCCTCCAGTTGGGGAGA,0.263

row,Sequence,TetR repression strength
1,TCCCGCGTAGTGCGTGAGA,0.321
2,TCCCGCCTAGTACCAGAGA,0.382
3,TCCCCAATAGTTGGAGAGA,0.34
4,TCCCCGGTAGTTCACGAGA,0.313
5,TCCCTTTCAGTGGCCGAGA,0.555
6,TCCCAATAAGTGCTCGAGA,0.407
7,TCCCAGGTAGTATCAGAGA,0.215
8,TCCCAAGGAGTCCCTGAGA,0.288
9,TCCCGCTAAGTACTTGAGA,0.167
10,TCCCCATGAGTCGTAGAGA,0.319
11,TCCCGTGGAGTCCTCGAGA,0.221
12,TCCCTAACAGTGCCCGAGA,0.377
13,TCCCCGCGAGTGATCGAGA,0.375
14,TCCCGTCTAGTTAGTGAGA,0.719
15,TCCCAGAAAGTGTGTGAGA,0.213
16,TCCCGCACAGTTCAGGAGA,0.284
17,TCCCATGCAGTGAGCGAGA,0.269
18,TCCCGTCCAGTCAATGAGA,0.385
19,TCCCAACCAGTAGTTGAGA,0.545
20,TCCCTCTAAGTAGTGGAGA,0.0907
21,TCCCTGCCAGTATCGGAGA,0.247
22,TCCCGCAGAGTTGCTGAGA,0.271
23,TCCCTAGGAGTGTCGGAGA,0.496
24,TCCCTCAGAGTCGGCGAGA,0.225
25,TCCCTTACAGTTCGCGAGA,0.373
